Experimental findings from PubChem BioAssay AID1347073 (National Center for Advancing Translational Sciences (NCATS), 2019) are described below.

Out of some 45,000 compounds screened, about 200 (0.44%) were called active. Roughly 7% stayed inconclusive and do not appear here. Calls come from the whole dose curve; as a rule, active = well fitted activation curve with a large enough effect; inconclusive = small, poorly fitted or top-dose-only effect; inactive = no such curve, though single readings can be large or run the other way. Some of the results follow.

The assay is described as follows: qHTS of TDP-43 Inhibitors: NCGC Sytravon Library Screen. Note: 0% is about no effect; nearly all actives have a fitted effect of over 55% in size. The following applies: yeast TDP-43 toxicity rescue, BacTiter-Glo growth, 24 h; series mostly up to 46.1 µM; growth rescue (activation): at the top concentration. In a few lines:
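TDP-43-expressing yeast, pregrown in raffinose, seeded at OD600 0.02 in galactose medium with compound for 24 hr at 30 deg C. Growth read by BacTiter-Glo luminescence, so rescue of toxicity appears as activation.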
With `Cc1ccc(C)c(CSc2nnc([C@@H]3CCCN3)o2)c1`, the “growth rescue (activation)” value was inactive: -1.71%.
The result for `CCc1nc2ccccc2n1CC(=O)NC1CCS(=O)(=O)C1` (configuration not stated) reads inactive: 5.35%; that for `CC(NS(=O)(=O)c1ccc(Cl)c(Cl)c1)C(=O)Nc1cccnc1` (configuration not stated), inactive: 1.95%; that for `CCOC(=O)C1(C)C=C(Nc2ccc(OC)cc2)C(=O)N1c1ccc(OC)cc1` (configuration not stated), inactive: 5.81%.
The result for `O=c1cc(CSc2n[nH]c(-c3ccncc3)n2)nc2sccn12` reads inactive: 9.68%; that for `O=C(O)c1cc(-c2ccc3c(c2)OCO3)nc2ccc(Br)cc12`, inactive: 22%.
The value for `CCOc1ccc(C2/C(=C(\O)c3ccc(OC)c(OC)c3)C(=O)C(=O)N2c2cc(C)on2)cc1OC` (configuration not stated) was inactive: 8.03%.
Consider `O=C(N/N=C/c1cn(-c2ccccc2)nc1-c1cc2ccccc2o1)c1ccncc1`, for which the “growth rescue (activation)” value is inactive: 24.8%.
The value for `Nc1c(-c2ccccc2)c(CN2CCOCC2)nn1-c1cccc([N+](=O)[O-])c1` was inactive: -2.49%.
The result for `COc1c(C)cccc1C(=O)NC(=S)Nc1cccc2nsnc12` reads inactive: -16.9%; that for `CC(=O)NC(c1ccc(C(C)C)cc1)c1ccc2cccnc2c1O` (configuration not stated), inactive: -2.98%.
The result for `CN1CCN(C(=O)c2ccc(N(C)S(=O)(=O)c3cccs3)cc2)CC1` reads inactive: -9.06%; that for `O=C(CSc1nc2ccccc2c(=O)n1CC1CCCO1)Nc1ccccc1` (configuration not stated), inactive: -21.1%.
`CC1CC(C)CN(C(=O)c2cccc(NC(=O)CC3SC(N4CCCCC4)=NC3=O)c2)C1` (configuration not stated): the “growth rescue (activation)” value was inactive: -14.2%.
`COCCNC(=O)C1CCCN(C(=O)c2sc(-c3ccccc3)nc2C)CC1` (configuration not stated): the “growth rescue (activation)” value is inactive: 6.21%.
The result for `CS(=O)(=O)c1ccc(-c2cc(NC=O)c3ncc(-c4ccc(F)cc4)n3c2)cc1` reads inactive: -5.78%; that for `O=c1[nH]c2ccccc2nc1-c1ccccc1`, inactive: 2.18%.
The result for `COc1cc(Br)cc2cc(C(=O)N3CCOCC3)c(=O)oc12` reads inactive: -2.5%; that for `CCN(Cc1cc(=O)[nH]c2ccccc12)C(=O)C(C)C`, inactive: 12.3%; that for `CCNC(=O)COC(=O)COc1ccc(Cl)cc1C`, inactive: 5.01%.
The result for `CCC(=O)c1ccc(OCC(=O)Nc2ccc(S(=O)(=O)Nc3cc(C)nc(C)n3)cc2)cc1` reads inactive: 14.9%; that for `NNC(=O)COc1cccc(Oc2ccccc2)c1`, inactive: 21.2%; that for `COc1ccc(NC(=O)Nc2ccc(F)cc2F)cc1`, inactive: 6.85%.
Turning to `Cc1cc2ccccc2n2c(SCC(=O)Nc3ccc(S(=O)(=O)N4CCCCC4)cc3)nnc12`, the “growth rescue (activation)” value is inactive: -26.1%.
The value for `COc1ccccc1CNC(=O)c1cc2ccccc2o1` was inactive: 20.5%; that for `COC(=O)c1cc(=O)n(Cc2ccc(OC)cc2)c(=NCc2ccc(OC)cc2)s1` was inactive: 0.862%; that for `O=C(O)CN1C(=O)/C(=C2\C(=O)N(Cc3ccccc3Cl)c3ccccc32)SC1=S` was inactive: -7.65%.
The value for `COc1ccccc1OCC#CCNC1CCCCC1C` (configuration not stated) was inactive: -13.9%.
The result for `COc1ccc(C(=O)OCC(=O)NC2CC2)cc1F` reads inactive: -21.4%; that for `CC1(Cc2ccc3ccccc3n2)C(=O)Nc2ccc(OC(F)(F)F)cc21` (configuration not stated), inactive: -4.79%; that for `CCOC(=O)c1nn(-c2ccc3ccccc3c2)cc1O`, inactive: -15%.
As to `COc1cc(C)ccc1S(=O)(=O)NC1CC(C)(C)NC(C)(C)C1`, the “growth rescue (activation)” value is inactive: 3.04%.
Turning to `Cc1cc([N+](=O)[O-])ccc1NC(=O)C1CCCO1` (configuration not stated), the “growth rescue (activation)” value was inactive: 24.4%.
The value for `COC(=O)c1ccc(/C=N/NC(=O)c2ccccc2Cl)cc1` was inactive: 8.17%; that for `CCc1ccccc1NC(=O)COc1cccc(-n2cnnn2)c1` was inactive: -13.2%.
The value for `O=C(Cn1ccc2ccccc2c1=O)NCCC(=O)N1CCN(c2ccccc2)CC1` was inactive: 4.15%; that for `COc1ccc2c(CC(=O)NNC(=O)c3ccc(C)cc3)coc2c1` was inactive: 16%.
The value for `COc1ccc(/C=N/NC(=O)c2cccc(NC(C)=O)c2)c(C(=O)O)c1OC` was inactive: 1.74%; that for `O=c1[nH]c(-c2ccccc2Cl)nc2c1sc(=S)n2-c1ccccc1` was inactive: -0.906%; that for `Cn1cc(P(=O)(N2CCOCC2)N2CCOCC2)cc1P(=S)(N1CCOCC1)N1CCOCC1` was inactive: -0.464%.
Turning to `O=C1Nc2ccccc2C(=O)N2C[C@@H](O)C[C@H]12`, the “growth rescue (activation)” value was inactive: 6.98%.
`Cc1ccc(C(=O)NNC(=O)CCn2nnc3ccccc32)cc1`: the “growth rescue (activation)” value was inactive: -3.86%.
The value for `O=C(Nc1ccc(O)c(-c2nc3ccccc3o2)c1)C1(c2ccc(Br)cc2)CCCC1` was inactive: 5.88%; that for `CC(C)NC(=O)c1ccc(-n2nc(C(F)(F)F)c3c2CCCC3)cc1` was inactive: 12.6%.
Take `CCc1cc(C(=O)OC)c(NC(=O)CN2CCN(C(=O)c3ccco3)CC2)s1`: the “growth rescue (activation)” value is inactive: -22.6%.
For the compound `O=C(NCCc1nc2ccccc2[nH]1)/C(=C/c1ccco1)NC(=O)c1ccc(Br)cc1`, the “growth rescue (activation)” value is inactive: 5.73%.
The value for `CCC(=O)Nc1sc(C(=O)Nc2ccccc2OC)c(C)c1C(=O)OC` was inactive: 4.27%; that for `COc1ccc(C2SCCN2C(=S)Nc2ccc(F)cc2)cc1` (configuration not stated) was inactive: -0.809%; that for `O=C(O)C1C2C=CC(C2)C1C(=O)NCCCN1CCOCC1` (configuration not stated) was inactive: 4.68%.
Turning to `CC(=O)c1ccccc1NC(=O)CCN1C(=O)C2CCCCC2C1=O` (configuration not stated), the “growth rescue (activation)” value is inactive: 7.79%.
For `Cc1c(Cl)cccc1NC(=S)N1CCN(C(=O)C2CCCO2)CC1` (configuration not stated), the “growth rescue (activation)” value is inactive: 12.8%.
The result for `O=C(/C=C/c1cccc(Cl)c1)NCc1ccncc1` reads inactive: 14.3%; that for `CC1CCC(NC(=O)C2CCN(S(=O)(=O)c3ccc4nc5c(c(C(=O)O)c4c3)CC(C)CC5)CC2)CC1` (configuration not stated), inactive: 12.2%.
In the case of `Cc1ccc2nsnc2c1NC(=O)COc1ccccc1`, the “growth rescue (activation)” value is inactive: 3.83%.
The result for `Cc1nnn(-c2nonc2N)c1C(=O)NNC(=O)c1ccc(Cl)c(Cl)c1` reads inactive: 6.05%; that for `O=C(COC(=O)CNC(=O)c1ccc(Cl)cc1Cl)NC1CC1`, inactive: -3.66%; that for `COc1ccccc1N1CCN(CCCCOc2cccc3ccccc23)CC1`, inactive: -4.47%.
The value for `FC(F)(F)c1cccc(NC(=S)N2CCN(c3ccccn3)CC2)c1` was inactive: 1.92%; that for `CCCC(=O)NC(c1ccccc1Cl)c1ccc2cccnc2c1O` (configuration not stated) was inactive: 12.6%.
The value for `O=C(NCCCN1CCOCC1)c1cc(Cl)ccc1[N+](=O)[O-]` was inactive: -22.9%; that for `Cc1ccc(C(NC(=O)N2CC(C)OC(C)C2)C(Cl)Cl)cc1F` (configuration not stated) was inactive: 11%.
For `COc1ccc(NC(=O)COC(=O)Cc2coc3cc(OC)ccc23)c(OC)c1`, the “growth rescue (activation)” value was inactive: -4%.
The value for `CCOCCCn1c(SCC(=O)N2CCOCC2)nc2ccccc2c1=O` was inactive: -7.7%; that for `O=c1c2ccccc2c(-c2n[nH]c(=S)o2)nn1Cc1ccccc1` was inactive: 12.1%; that for `Cc1c(NCc2cc(Cl)ccc2O)c(=O)n(-c2ccccc2)n1C` was inactive: 25.1%.
The result for `COc1cc(CC(=O)OCc2cccc([N+](=O)[O-])c2)cc(OC)c1OC` reads inactive: 33.8%.
The result for `Nc1cc(N)nc(SCC(=O)Nc2ccccc2N2CCOCC2)n1` reads inactive: -10.1%.
On to `Cc1ccc(S(=O)(=O)N2CCOCC2)cc1NC(=O)COC(=O)c1ccccc1OCc1c(C)noc1C`, for which the “growth rescue (activation)” value was inactive: 16.9%.
Regarding `CCOC(=O)CSc1nc(C)c2cccc(C)c2n1`, the “growth rescue (activation)” value was inactive: 26.5%.
In the case of `NC(=O)COC(=O)C1c2ccccc2Oc2ccccc21`, the “growth rescue (activation)” value is inactive: 3.61%.
On to `COc1ccc(NC(=O)/C=C/c2cccc(C(F)(F)F)c2)cn1`, for which the “growth rescue (activation)” value is inactive: 22.6%.
The result for `CCCCCC1C/C(=N\O)C=C(C)C1C(=O)OC` (configuration not stated) reads inactive: 1.58%.
In the case of `CC(=O)Nc1cccc(Oc2ncnc3scc(-c4ccc(C(C)C)cc4)c23)c1`, the “growth rescue (activation)” value was inactive: 6.73%.
The value for `COc1cccc(NC(=O)NC2(C(=O)N3CCN(C)CC3)CCCCC2)c1` was inactive: 10.7%.
The value for `O=C(Nc1cccc(O)c1)c1cccc(S(=O)(=O)N2CCCCCC2)c1` was inactive: 9.08%; that for `Cc1ccc(S(=O)(=O)Nc2cc(C(F)(F)F)ccc2N2CCOCC2)cc1C` was inactive: -5.38%.
The result for `COc1ccc(C(C(=O)NC2CCCCC2)N(C(=O)c2sc(C)nc2C)c2ccccc2)cc1` (configuration not stated) reads inactive: 14%; that for `CC(C)Oc1cccc(C(=O)Nc2nnc([C@H]3C[C@H](O)[C@@H](CO)O3)s2)c1`, inactive: 0.429%.
For `CCOC(=O)c1cc2c(=O)n3cccc(C)c3nc2n(CC(C)C)c1=NC(=O)c1ccco1`, the “growth rescue (activation)” value was inactive: 2.13%.
The value for `COc1ccc(OC)c(NC(=O)C2CCN(C(=O)c3cccs3)CC2)c1` was inactive: 12.5%.
`COc1ccc(CCNC(=O)C(C)SCc2ccccc2)cc1` (configuration not stated): the “growth rescue (activation)” value is inactive: 11.3%.
For the compound `C/C(=N\NC(=O)c1cccc(S(=O)(=O)N2CCOCC2)c1)c1ccco1`, the “growth rescue (activation)” value is inactive: 10.6%.
The result for `COCCNC(=O)C1(C)CCCN(Cc2cc(C)ccc2C)C1` (configuration not stated) reads inactive: 18.7%; that for `O=C(CSc1nc2ccccc2n1S(=O)(=O)c1cccc([N+](=O)[O-])c1)NCc1cccs1`, inactive: 26.9%.
On to `Cc1ccccc1C(=O)NC(=S)NC1CC1`, for which the “growth rescue (activation)” value was inactive: 19.6%.
Take `Cc1ccc(C(=O)OCC(=O)Nc2ccc3[nH]c(=O)[nH]c3c2)cc1[N+](=O)[O-]`: the “growth rescue (activation)” value is inactive: -5.11%.
In the case of `O=C(CN(CC1CCCO1)C(=O)CNS(=O)(=O)c1ccc(Cl)cc1)NC1CCCC1` (configuration not stated), the “growth rescue (activation)” value was inactive: 7.89%.
As for `COc1ccc2cc(C(=O)C3CCCN(Cc4cnc(N5CCOCC5)s4)C3)ccc2c1` (configuration not stated), the “growth rescue (activation)” value was inactive: 6.81%.
The result for `O=C1N=C(N2CCc3ccccc3C2)S/C1=C\c1ccc(O)cc1` reads inactive: 14.8%.
The result for `N#C/C(=C/c1ccccc1[N+](=O)[O-])c1nnc2n1CCCCC2` reads inactive: 10.7%.
The value for `Cc1cc(=O)[nH]c(SCC(=O)c2ccc3c(c2)NC(=O)CO3)n1` was inactive: -2.34%; that for `CC(O)c1nc2ccccc2n1CCCOc1ccccc1` (configuration not stated) was inactive: -0.899%; that for `CCNc1c(NC(=O)c2cccs2)c(=O)oc2ccccc12` was inactive: -0.877%.
With `N#Cc1cc(C(=O)c2cc(Br)ccc2O)cn(Cc2ccccc2)c1=O`, the “growth rescue (activation)” value was inactive: 17.8%.
The result for `CCn1c(C)nc2cc(C(=O)NNS(=O)(=O)c3ccccc3F)ccc21` reads inactive: 16.2%; that for `O=C(N/N=C/c1ccc([N+](=O)[O-])o1)c1cc(-c2ccc(-c3ccccc3)cc2)nc2ccccc12`, inactive: -9.21%.
The value for `Cc1ccc(C)c(CN2C(=O)c3ccccc3S(=O)c3ccc(C(=O)N4CCN(c5ccccn5)CC4)cc32)c1` (configuration not stated) was inactive: -1.45%; that for `CCN(CC)S(=O)(=O)c1ccc(NC2CCN(Cc3ccccc3)CC2)nc1` was inactive: 5.76%; that for `CCC(=O)Nc1cccc(-c2cc3ccccc3oc2=O)c1` was inactive: 4.55%.
The value for `CCC1CCCCN1C(=O)c1cc(S(=O)(=O)N2CCOCC2)ccc1C` (configuration not stated) was inactive: -2.51%; that for `O=C1CSC2(N1)C1CC3CC(C1)CC2C3` (configuration not stated) was inactive: 5.13%; that for `COc1ccccc1-n1cnnc1SCC(=O)N1CCOCC1` was inactive: 0.0478%.
With `CCCOc1ccc(F)cc1-c1cc(C(=O)NCc2ccc(C(F)(F)F)cc2)[nH]n1`, the “growth rescue (activation)” value is inactive: -0.0838%.
The value for `CCOC(=O)c1[nH]c(C)c(C(=O)NCCC2=CCCCC2)c1C` was inactive: 19.3%; that for `Cc1ccc2c(c1)nnn2C1CCN(CC(=O)NCc2ccccc2F)CC1` was inactive: -2.71%.
The value for `O=C(O)c1cc([N+](=O)[O-])ccc1NCCO` was inactive: 11.7%.
The value for `ClC(Cl)(Cl)c1nc(N/N=C/c2ccncc2)c2ccccc2n1` was inactive: 17.7%.
